Assay results taken from PubChem BioAssay AID1508623 (National Center for Advancing Translational Sciences (NCATS), 2021).
The campaign covered roughly 48,000 compounds. About 450 (0.94%) were called active. This list was built around the results that the source calls inconclusive (neither active nor inactive); the mix of calls is not that of the screen. The call rests on the fitted dose curve; in most records, active means well fitted inhibition curve with a large enough effect; inconclusive means small, poorly fitted or top-dose-only effect; inactive means no such curve, though single readings can be large or run the other way. Potencies beside an inconclusive call are fits to weak or partial responses and may not hold up.

Test: Primary qHTS for Identification of Small Molecule Inhibitors of Huntingtin Promoter Activity; further: nearly all actives have a fitted effect of over 50% in size
Conditions: HEK293 HTT promoter firefly luciferase reporter (activity 0% = vehicle and -100% = no light), 24 h; activity change, negative = inhibition: at 57.5 µM (top of the series)
Procedure, shortened: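 Quantitative HTS used concentration series of up to 57.5 uM final on HEK293 luciferase reporter cells, 24 h at 37 degrees C. Readout was Dual-Glo firefly luminescence.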
Potency means the concentration at half of the fitted maximal effect; tags describe the fitted curve by direction and shape.

Row | SMILES | Potency | activity change, negative = inhibition
1 | CCc1ccc(NC(=O)Cn2c(=O)oc3cc(S(=O)(=O)NCc4ccccc4)ccc32)cc1 | inconclusive: 11.2 µM [inhibitor, partial curve] | 
2 | COc1ccccc1CNC(=O)CCC1N=C2c3ccccc3N=C(SCc3ccccc3Cl)N2C1=O (centres undefined) | inconclusive: 39.8 µM [inhibitor, single point] | 
3 | CCCS(=O)(=O)Nc1ccc(F)c(C(=O)c2c[nH]c3ncc(Cl)cc23)c1F | inconclusive: 21.7 µM [inhibitor, partial curve, poor fit] | 
4 | CC1=C(c2ccc(Cl)cc2)S(=O)(=O)N=C1N1CCN(c2cccc(C(F)(F)F)c2)CC1 | inconclusive: 11.2 µM [inhibitor, partial curve] | 
5 | O=C(NCc1ccc(Cl)cc1)c1ccc2c(c1)NC(=O)C(CS(=O)(=O)Cc1ccccc1Cl)N2 (centres undefined) | inconclusive: 22.4 µM [inhibitor, single point] | 
6 | CCn1c(=O)c2cc(C(=O)NCCCN(C)Cc3ccccc3)sc2c2ccccc21 | inactive | 
7 | CCC1=C[C@@H]2CN(C1)Cc1c([nH]c3ccccc13)[C@@](C(=O)OC)(c1cc3c(cc1OC)N(C)[C@@H]1[C@@](O)(C(=O)OC)[C@H](OC(C)=O)[C@]4(CC)C=CCN5CC[C@]31[C@@H]54)C2 | inconclusive: 1.22 µM [inhibitor, full curve, poor fit] | 
8 | CCc1cccc(N2C(=O)CS(=O)(=O)C23C(=O)N(Cc2ccc(F)cc2)c2ccc(C)cc23)c1 (centres undefined) | inconclusive: 14.1 µM [inhibitor, partial curve] | 
9 | CC1=C(C(=O)Nc2ccc(C)cc2)C(c2ccc(Cl)cc2)n2nnnc2N1 (centres undefined) | inactive | 
10 | CCN1c2cc(C)ccc2-n2cccc2C12CCN(C(=O)Nc1cc(OC)c(OC)c(OC)c1)CC2 | inconclusive: 39.8 µM [inhibitor, single point] | 
11 | CCOC(=O)c1c(NC(=O)c2ccc(S(=O)(=O)N3CCCC(C)C3)cc2)sc2c1CCN(C(C)C)C2 (centres undefined) | inconclusive: 10 µM [inhibitor, partial curve, poor fit] | 
12 | Cc1ccc(S(=O)(=O)c2nc(-c3ccco3)oc2SCc2ccccc2Cl)cc1 | inconclusive: 25.1 µM [inhibitor, partial curve, poor fit] | 
13 | O=C(Nc1cccc(Cl)c1)Nc1ncc(CCNc2ncnc3ccsc23)s1 | inactive | 
14 | CC(C)c1ccc2oc(-c3cccc(NC(=O)c4ccc5c(c4)OCCO5)c3)nc2c1 |  | inactive: -10.6% [at 11.5 µM]
15 | COc1cccc(NC(=O)C2CCCN2S(=O)(=O)c2ccc3c(c2)C(C)(C)C(=O)N3C)c1 (centres undefined) | inconclusive: 35.5 µM [inhibitor, partial curve, poor fit] | 
16 | CSc1ccc(CCNC(=O)CCc2c(C)nc3cc(-c4ccccc4)nn3c2C)cc1 | active: 2 µM | 
17 | O=C(CSc1ncc(CO)n1Cc1ccccc1)Nc1ccc(C(F)(F)F)cc1 | inconclusive: 25.1 µM [inhibitor, partial curve] | 
18 | O=C(Nc1nnc(S(=O)(=O)N2CCc3ccccc32)s1)c1ccccc1 | inconclusive: 22.4 µM [inhibitor, single point] | 
19 | COc1cc(NC(=O)c2cnc3c(-c4ccc(F)cc4)c(C)nn3c2C)cc(OC)c1 | inconclusive: 39.8 µM [inhibitor, single point] | 
20 | CCOC(=O)c1ccc(NS(=O)(=O)c2cc(Br)cc3c2N(C(C)=O)C(C)C3)cc1 (centres undefined) | active: 15.8 µM | 

Row | SMILES | Potency | activity change, negative = inhibition
21 | O=C(Nc1cc(Cl)cc(Cl)c1)c1cc(S(=O)(=O)N2CCc3ccccc3C2)ccc1F | inactive | 
22 | COc1ccc(C(=O)Nc2c(C(=O)c3ccccc3)oc3ccccc23)cc1 | inactive | 
23 | CC(C)OP(=O)(CP(=O)(OC(C)C)OC(C)C)OC(C)C | inactive | 
24 | Cc1ccc(Cn2c(C(=O)O)c(CNCc3cccs3)c3ccc(C)cc32)cc1 | inconclusive: 31.6 µM [inhibitor, single point] | 
25 | CCN(C(=O)c1cc(S(=O)(=O)N2CCc3ccccc32)cn1C)c1cccc(C)c1 | inconclusive: 39.8 µM [inhibitor, single point] | 
26 | Cc1ccc(Cl)cc1N1CCN(C(=O)c2cccn2-c2nnc(N3CCCC3)s2)CC1 | inconclusive: 22.4 µM [inhibitor, partial curve, poor fit] | 
27 | COc1ccccc1Nc1c2c(nc3ccc(NC(=O)/C=C/c4cc(OC)c(OC)c(OC)c4)cc13)CCCC2 | inconclusive: 28.2 µM [inhibitor, partial curve, poor fit] | 
28 | CC(C)c1ccc(NC(=O)C2Cc3ccccc3N2C(=O)c2ccccc2)cc1 (centres undefined) | inconclusive: 31.6 µM [inhibitor, partial curve, poor fit] | 
29 | COc1ccc(-c2cc(C(F)(F)F)nc(SCCC(=O)Nc3ccc(O)cc3)n2)cc1 | inconclusive: 39.8 µM [inhibitor, single point] | 
30 | CCOc1ccc(-n2cc(-c3ccccc3)c3c(NCc4ccc(F)cc4)ncnc32)cc1 | inconclusive: 22.4 µM [inhibitor, single point] | 
31 | O=S(=O)(N=Cc1c(O)ccc2ccccc12)c1cccs1 | inactive | 
32 | Cc1ccc(C)c(S(=O)(=O)Nc2ccc3c(c2)CCCN3C(=O)c2cccs2)c1 | inconclusive: 28.2 µM [inhibitor, partial curve, poor fit] | 
33 | COc1ccc(C)cc1NS(=O)(=O)c1ccc(-c2cnc(C3CC3)o2)cc1 | inconclusive: 1 µM [inhibitor, full curve, poor fit] | 
34 | CCCN(C(=O)c1cc2c(=O)n(CC)c3ccccc3c2s1)c1ccccc1F | inactive | 
35 | COc1ccc(C2c3c(n(C)c4ccccc34)C(=O)N2CC(=O)Nc2ccccc2Cl)cc1 (centres undefined) | inconclusive: 10 µM [inhibitor, partial curve, poor fit] | 
36 | CC(=O)c1cccc(NC(=O)Cn2c(=O)oc3cc(S(=O)(=O)NCc4ccccc4)ccc32)c1 | inactive | 
37 | COc1ccc(CCNC(=O)c2c[nH]n3c(=O)c(Cc4ccccc4Cl)c(C)nc23)cc1OC | inconclusive: 39.8 µM [inhibitor, single point] | 
38 | Fc1ccc(CNc2ncnc3ccc(F)cc23)cc1 | inactive | 
39 | O=C(NCc1cccs1)c1ccc(CSc2nc3cccnc3n2Cc2ccc(F)cc2)cc1 | inconclusive: 39.8 µM [inhibitor, single point] | 
40 | COc1ccc(-c2nn(-c3ccc(F)cc3)c3c2cnc2cc4c(cc23)OCO4)cc1 | inactive | 

Row | SMILES | Potency | activity change, negative = inhibition
41 | CCc1ccccc1NC(=O)CSc1nc2n[nH]c(C)c2c(=N)n1-c1cccc(C)c1 | inconclusive: 25.1 µM [inhibitor, single point] | 
42 | Cc1cc(C)cc(NC(=O)C2CCN(C(=O)c3cnn(-c4ccccc4)c3-n3cccc3)CC2)c1 | inconclusive: 31.6 µM [inhibitor, partial curve] | 
43 | O=C(Nc1ccc(F)c(F)c1)c1cc(S(=O)(=O)NCc2ccc3c(c2)OCO3)ccc1F | inconclusive: 20 µM [inhibitor, single point] | 
44 | COc1ccc(C2=NC3(CCCCCC3)N(CC(=O)Nc3cccc(Cl)c3)C2=O)cc1 | active: 31.6 µM | 
45 | COc1cccc(NC(=O)Cn2c(=O)ccc3cc(S(=O)(=O)N4CCC(C)CC4)ccc32)c1 | inconclusive: 20 µM [inhibitor, partial curve, poor fit] | 
46 | COc1ccc(Cl)cc1S(=O)(=O)N1CCN(CC(=O)Nc2ccccc2C(F)(F)F)CC1 | inconclusive: 35.5 µM [inhibitor, single point] | 
47 | CCSc1nc2c([nH]c3ccccc32)c(=O)n1-c1cccc(OC)c1 | inconclusive: 39.8 µM [inhibitor, single point] | 
48 | COc1ccc(-c2nc(CCNC(=O)c3c(F)cccc3Cl)cs2)cc1 | inconclusive: 25.1 µM [inhibitor, single point] | 
49 | CC1CCN(C(=O)Cn2cc(SCC(=O)Nc3ccccc3C(F)(F)F)c3ccccc32)CC1 | inconclusive: 28.2 µM [inhibitor, partial curve, poor fit] | 
50 | CCCCNc1ccc(-c2nc(-c3ccncc3)no2)cc1[N+](=O)[O-] | inactive | 
51 | Cc1ccc(CN2C(=O)C(=O)c3cc(Br)cc(C)c32)cc1 | inconclusive: 39.8 µM [inhibitor, single point] | 
52 | Cc1ccccc1Nc1c(-c2cccnc2)nc2cccc(C)n12 | inconclusive: 35.5 µM [inhibitor, partial curve, poor fit] | 
53 | COc1cccc(-n2c(-c3ccco3)nc3c(cnn3-c3ccc(Cl)cc3)c2=O)c1 | inconclusive: 25.1 µM [inhibitor, partial curve, poor fit] | 
54 | CCOC(=O)c1ccc(N2C(=O)c3n[nH]c(-c4cccs4)c3C2c2cccc(OC)c2)cc1 (centres undefined) | inconclusive: 35.5 µM [inhibitor, partial curve, poor fit] | 
55 | CCS(=O)(=O)c1nc(S(=O)(=O)c2ccc(C)cc2)c(NC(C)c2ccccc2)s1 (centres undefined) | inconclusive: 39.8 µM [inhibitor, partial curve, poor fit] | 
56 | Cc1ccc(S(=O)(=O)c2nc(-c3ccc(F)cc3)oc2SCC(=O)c2ccccc2)cc1 | inconclusive: 31.6 µM [inhibitor, partial curve, poor fit] | 
57 | CCCOc1ccc(CNC(=O)Cn2cc3c(n2)-c2c(oc(C(=O)N4CCOCC4)c2C)CC3)cc1 | inconclusive: 25.1 µM [inhibitor, single point] | 
58 | CC(NC(=O)c1ccc(Cn2c(=O)c3cccn3c3cccnc32)cc1)c1ccccc1 (centres undefined) | inactive | 
59 | Cc1ccc(C)c(Nc2nc3c(S(=O)(=O)c4ccc(Br)cc4)nnn3c3ccsc23)c1 | inconclusive: 28.2 µM [inhibitor, partial curve] | 
